Reference: the supplement of paper PMC11417369
This is one part of the list.

These sequences were tested on PfHDP1 homeodomain (GST-tagged) (assay: gcPBM binding intensity (ln(normalized median fluorescence intensity)); higher = stronger DNA binding).
Outline: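 Binding of GST-tagged P. falciparum DNA-binding domains, expressed in E. coli and used at about 25 μg on average, was carried out for 1 h in 1× PBS containing 1% milk, 0.2 mg/ml BSA, 0.5% salmon testes DNA and 0.03% Triton X-100. The target was an Agilent 4 × 180k array of primer-extended double-stranded 36-bp intergenic genomic probes plus negative controls, read with Alexa488 anti-GST antibody at 488 nm. Binding intensity is the highest Masliner-normalised natural-log median intensity across replicate spots of either probe orientation.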

In order of rising “gcPBM binding intensity (ln)” value:
1. TTGTAGGAATTTATTTTGACTGATAATTAATACGTT [GTGCAC_negctrl_site46]  5.75
2. TGATTATATAAAAAAAAGAAAAAAAAAAAAAAAAAA [CACACA_negctrl_site819]  5.77
3. GATATGATTAACTTATGTTATTCTTGATGGTTTCTT [GTGCAC_negctrl_site411]  6.02
4. ATATTTAAAAAAGAGTGTACTCATCTCTTTTAAAAA [XGTACX_site1160]  6.07
5. TAGGAGCCTAGACACACACACAAAAAAAAAAAAAAA [CACACA_site6911]  6.17
6. AAAAAAAAAAAATAATAAATAAATAAAAATAAATGA [CACACA_negctrl_site1623]  6.19
7. TATTTTAACTTTTTTTCCTTTATTCATTTTTTTTTC [CACACA_negctrl_site971]  6.27
8. AATGTAGGTTTATTTACACACAAATATAGATATATA [CACACA_site6825]  6.28
9. AAAAAAAAATTTGTATCACACACGTATTATAAAAAA [CACACA_site6]  6.28
10. AAAAAAAAAAAAAAGTGTACCTTATTATACTTTAAT [XGTACX_site8439]  6.29
11. CAAAGCATTTTATCTACACACATATATAAATAAATA [CACACA_site7500]  6.3
12. AATAATACGTTAAATGTTCTTACAAGTTGGTTTCAT [CACACA_negctrl_site1029]  6.33
13. TAATTTGTTAAAGGTTCACATATGGTATATACTTCT [XGTACX_negctrl_site292]  6.33
14. TATCACAAAATATACTGTACATACAGGCAGTAATAT [XGTACX_site2487]  6.36
15. CCTCCATTAGATACTTGTACATAAAAGTTTTGATTG [XGTACX_site7428]  6.37
16. ATTTTATTAATTTGGTGTACTTAATTTATATTTTTC [XGTACX_site4947]  6.4
17. TAACTTCAAACAAAATATGGTAAAAGTGGTTGAAAA [CACACA_negctrl_site42]  6.42
18. GATATAGATATTAATTGTACATATTATTTATTGTTA [XGTACX_site846]  6.44
19. TTATAAAACCATGTCATCAACATAGGCACAAAAATG [CACACA_negctrl_site1160]  6.52
20. ATAATTTTTATTTGTACACACATACAGATATATTAT [CACACA_site4701]  6.53
21. ATTATATAATATAATGCATGTGTTAATGAAAAATCT [TGCATGCA_site426]  6.6
22. ATAATATATATATTAACACACATCCTTTTATGTATA [CACACA_site1203]  6.67
23. AATCATAAAATCATATGTACACATTTTTCCTATGAT [XGTACX_site8799]  6.67
24. AAATAATTTATATGTAGTACATGTTGTAGATAATTT [XGTACX_site1031]  6.67
25. AGAAGGTAAAAACACACACACACATACAAAAAAAAA [CACACA_site3767]  6.72
26. CCATAGATATTTTATACACACATATAATATATTAAT [CACACA_site373]  6.72
27. CTATTTCGTATATATAGTACATATTATAACATACTA [XGTACX_site978]  6.73
28. CACACTAAAAGACACACACACACACGCATATAAATA [CACACA_site7874]  6.75
29. TGATGCAAGATATATACACACATATAAATATAAATA [CACACA_site7429]  6.81
30. AAATATATATATATATGTACACACACACATATAAAT [XGTACX_site847]  6.82
31. AAAACGAAAATTTGGAAACCAAAGGAAAAACATAAT [GTGCAC_negctrl_site709]  6.87
32. AAAATACCCGGACACACACACATATATATATATATT [CACACA_site6137]  6.9
33. ATATGTGTGTAGTGTTCAATTATATTGATGTGAAGG [TGCATGCA_negctrl_site462]  6.91
34. ACAAAATAAAAACACACACACAAACACAAAAAAATA [CACACA_site3390]  6.92
35. TAGTGTAAAAAATACGCATGTGTACAAATATAATAA [TGCATGCA_site498]  6.94
36. AAGAATCACCAAATATGTACACACCTTAACATGTTT [XGTACX_site4272]  6.96
37. AGACTTTGTACAAACACACACATGAACACAATATTA [CACACA_site1360]  7.06
38. TATATATACAGACACATACACACAAATAAAAAAACA [CACACA_site3413]  7.08
39. TAATAAGGTTACAACAAACACACAAAGGAATATACA [CACACA_site4089]  7.11
40. GTGTATTTATGTTATACACACAAAAATATTTTGTAT [CACACA_site4305]  7.13
41. TAAAGGTGTAAAACTGCATGCTGGAGAAAAGTAAAA [TGCATGCA_site591]  7.13
42. ATTAAACATACATATACACACACACCCACCCACCCA [CACACA_site8057]  7.24
43. ATAATTCATGTTTAGTGTACAAAAAATTAAAGCAAC [XGTACX_site8891]  7.25
44. TTCTAAAAAGGGTGTACACAAACGAATGGAAAATAA [CACACA_site5483]  7.57
45. ATCTTTATTTTTAGCGCACACATAAAATAATAATAA [CACACA_site3458]  7.63
46. TATATATATATAATATGTACATATATATATTCTTAA [XGTACX_site6154]  8.78
47. GATATGTACTAATACACACACATATATATATATATA [CACACA_site1022]  9.41
48. TACATATAGAAACACACACACATATATATATATATA [CACACA_site1300]  9.43
49. CCACTGTATGAATGCACACATTCATAGAATTGCTAT [CACACA_site2676]  9.51
50. GAACCGTGCAAATGTTGTACACTTTAAAAATATTCT [XGTACX_site4488]  9.86
51. ATGCATCATTTATTTGCACACCTATTATATACTTTT [CACACA_site2097]  10.1
52. GATGATTCAATTTATGCACACTAAAAATTAATTATA [CACACA_site4308]  10.1
53. TTATAATAATTTTATGCACACAGAAAAATACAAGGT [CACACA_site9169]  10.2
54. AGCTCTTGTCATTTTGCACACACACCGGTATAGGTT [CACACA_site5654]  10.4
55. TTATGATAACTTTGCACACACTTAGGAAAAGTTATG [CACACA_site6836]  10.6
56. TTTTTTTTTTTATGTGCACACAAAAGATGCTTATAT [CACACA_site2347]  10.7
